{
  "source": "PubChem BioAssay (EPA / NIEHS)",
  "key": {"[1]": {"target": "Androgen receptor (Homo sapiens) (UniProt P10275)", "assay": "ATG_AR_TRANS: Attagene TRANS-FACTORIAL HepG2 Assay for human Androgen Receptor (AR) (AID 2282973)", "conditions": "HepG2 Attagene TRANS-FACTORIAL AR reporter transcription", "outline": "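HepG2 cells transiently transfected with multiplexed GAL4-UAS reporter units and chimeric NR-Gal4 fusion; 24 h compound exposure. Reporter mRNA measured by RT-PCR, 6-FAM labelling, HpaI digestion and capillary electrophoresis; gain-of-signal fitted relative to DMSO baseline.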"}, "[2]": {"target": "Androgen Receptor/SRC-1 Co-activator, AR (gene 367) (UniProt P10275)", "assay": "OT_AR_ARSRC1_0480: Odyssey Thera (OT) 8-hour HEK293T Protein-Complementation Assay for Androgen Receptor/SRC-1 Co-activator (AID 2283354);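 also: hits raise the complementation signal above DMSO so AC50 marks enhancers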", "outline": "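Reconstituted split-Venus YFP signal from AR–SRC-1 interaction, read by imaging 8 h post-dose in stable HEK293T lines. The 488 nm nucleus-to-cytoplasm ratio (≥400 cells/image) was fitted upward against DMSO.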"}, "[3]": {"target": "rat Androgen Receptor (AR), Ar (gene 24208) (UniProt P15207)", "sequence (P15207 whole entry, looked up)": "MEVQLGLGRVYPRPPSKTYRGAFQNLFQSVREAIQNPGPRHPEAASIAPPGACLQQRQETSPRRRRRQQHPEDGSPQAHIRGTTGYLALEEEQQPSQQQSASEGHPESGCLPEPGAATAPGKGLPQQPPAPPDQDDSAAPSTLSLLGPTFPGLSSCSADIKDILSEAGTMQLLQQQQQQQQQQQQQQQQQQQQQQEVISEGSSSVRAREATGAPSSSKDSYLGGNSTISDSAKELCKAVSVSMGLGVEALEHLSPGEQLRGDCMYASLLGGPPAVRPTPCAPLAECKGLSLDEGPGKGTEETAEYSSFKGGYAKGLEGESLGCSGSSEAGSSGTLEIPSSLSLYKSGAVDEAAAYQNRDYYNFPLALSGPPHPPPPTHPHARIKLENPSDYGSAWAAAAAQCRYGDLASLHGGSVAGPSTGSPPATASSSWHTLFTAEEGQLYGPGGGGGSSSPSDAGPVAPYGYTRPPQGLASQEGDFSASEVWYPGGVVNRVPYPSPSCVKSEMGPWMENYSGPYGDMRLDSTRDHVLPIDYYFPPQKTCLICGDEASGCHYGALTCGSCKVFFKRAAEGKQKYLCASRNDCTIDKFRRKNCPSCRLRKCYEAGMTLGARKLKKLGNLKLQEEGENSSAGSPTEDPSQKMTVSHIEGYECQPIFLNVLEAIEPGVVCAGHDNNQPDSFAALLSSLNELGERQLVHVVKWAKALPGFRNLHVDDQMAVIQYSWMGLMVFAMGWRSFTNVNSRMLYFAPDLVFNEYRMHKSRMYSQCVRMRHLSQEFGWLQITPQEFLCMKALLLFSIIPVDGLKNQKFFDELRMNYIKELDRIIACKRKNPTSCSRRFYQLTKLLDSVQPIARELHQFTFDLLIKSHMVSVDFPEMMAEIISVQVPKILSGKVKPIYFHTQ", "assay": "NVS_NR_rAR: NovaScreen (NVS) Nuclear Receptor Binding Assay for rat Androgen Receptor (AR) (AID 2283366)", "outline": "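Actives from a duplicate single-concentration (25 uM) primary run went on to concentration series. Displacement of radioligand was counted by filtration and scintillation, 18 h post-dose, using prostate extracts from testosterone-pretreated rats, with DMSO as baseline.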"}, "[4]": {"target": "Estrogen receptor beta (Homo sapiens) (UniProt Q92731)", "sequence (Q92731 whole entry, looked up)": "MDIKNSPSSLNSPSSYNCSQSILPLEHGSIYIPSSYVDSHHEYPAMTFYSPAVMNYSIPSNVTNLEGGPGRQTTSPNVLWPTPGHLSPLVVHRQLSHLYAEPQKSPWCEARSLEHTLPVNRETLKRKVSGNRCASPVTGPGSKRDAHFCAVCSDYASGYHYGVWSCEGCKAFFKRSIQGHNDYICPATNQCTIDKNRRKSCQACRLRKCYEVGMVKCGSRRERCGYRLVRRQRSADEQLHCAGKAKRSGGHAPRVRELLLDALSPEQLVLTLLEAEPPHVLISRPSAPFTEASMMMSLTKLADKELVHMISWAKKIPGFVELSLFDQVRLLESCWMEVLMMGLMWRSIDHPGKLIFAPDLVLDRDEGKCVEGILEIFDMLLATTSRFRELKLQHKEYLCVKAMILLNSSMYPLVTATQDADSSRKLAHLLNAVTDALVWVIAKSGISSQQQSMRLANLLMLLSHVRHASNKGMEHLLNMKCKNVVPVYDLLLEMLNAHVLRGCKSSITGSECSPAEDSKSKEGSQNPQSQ", "assay": "OT_ER_ERbERb_1440: Odyssey Thera (OT) 24-hour HEK293T Protein-Complementation Assay for Estrogen Receptor-beta/-beta Homodimer (AID 2283380);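 also: scored as signal increase over DMSO baseline for both agonists and antagonists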", "outline": "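Fluorescence increase, nuclear for agonists or whole-cell for antagonists, relative to DMSO vehicle, quantified by laser scanning cytometer after fixation and Draq5 staining. Readout from 24 h treatment of HEK293T cells carrying complementation-paired ER beta LBD (aa 310-547).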"}},
  "note": "Inconclusive results are not listed. The calls were made as follows: active = hit-call score of the fitted dose curve at least 0.9, where 1 is the maximum; inconclusive = response in the unintended direction; inactive = score below 0.9. A number of entries come with more than one value. This is not the full list of results. There may be further records. Results that share an entry repeat one measurement across runs, samples, wells, individuals or studies. Some structures have more than one record in an assay (separate samples or runs), and their calls can disagree.",
  "data": [
    {"smiles": "C[C@]12C=CC3=C4CCC(=O)C=C4CC[C@H]3[C@@H]1CC[C@@H]2O", "values": [
      {"measurement": "AC50", "setting": "[1]", "result": "active: 9.14, 11.3, 60, 55.8, 227 nM [separate samples]"},
      {"measurement": "AC50", "setting": "[2]", "result": "active: 1.08, 0.554, 30, 29.9, 185 nM [separate samples]"},
      {"measurement": "AC50", "setting": "[3]", "result": "active: 11, 21.7, 2.29, 13.4, 24 nM [separate samples]"},
      {"measurement": "AC50", "setting": "[4]", "result": "active: 151 nM, 17.7 µM, 16.4 µM, 16.2 µM [separate samples]"}
    ]}
  ]
}
